According to the supplement of paper PMC11348887:
Counter-ions that a name gives are not always drawn. This is one part of the list. Rule as the data show it: active = -2 or less and inactive = the rest. Most values come without repeats; read them as rough.

System: hPSC-derived cortical neurons (WA09)
Test: nuclei number (viability) z-score; higher = more surviving cells
Settings: 5 µM; treatment: days 7-14 after plating, readout day 21
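Also: nuclei counted from DAPI counterstain by automated high-content image analysis, four fields per well at ×20 in 384-well plates, with sequential b-score then z-score normalization.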

| SMILES | nuclei number (z-score) |
| --- | --- |
| FC(F)c1nc2ccccc2n1-c1nc(N2CCOCC2)nc(N2CCOCC2)n1 | inactive: 0.992 |
| CN(C(=O)CNC(=O)/C=C/c1cccc(Cl)c1)C1CCS(=O)(=O)CC1 | inactive: -0.178 |
| CCN1CCN(c2cc3c(cc2F)c(=O)c(C(=O)O)cn3C2CC2)CC1 [Enrofloxacin] | inactive: -0.203 |
| O=C1C2CC3CC1CC(O)(C3)C2 [Idramantone] | inactive: 0.172 |
| Cc1nnc(NS(=O)(=O)c2ccc(N)cc2)s1 [Sulfamethizole] | inactive: 1.15 |
| CC(C)Oc1ccc(C(=O)N[C@H](CNC(=O)CN(C)C)Cc2ccc(-c3cn4cccc([C@H](C)O)c4n3)cc2)cc1Cl | inactive: 0.432 |
| C[C@@H]1C[C@H]2[C@@H]3CCC4=CC(=O)C=C[C@]4(C)[C@@]3(F)[C@@H](O)C[C@]2(C)[C@@]1(O)C(=O)CO [Dexamethasone (DHAP)] | inactive: 2.25 |
| OC1(c2ccc(Cl)c(C(F)(F)F)c2)CCN(CCCC(c2ccc(F)cc2)c2ccc(F)cc2)CC1 [Penfluridol] | active: -4.44 |
| CC1(C)O[C@@H]2C[C@H]3[C@@H]4CCC5=CC(=O)C=C[C@]5(C)[C@@]4(F)[C@@H](O)C[C@]3(C)[C@]2(C(=O)CO)O1 [Triamcinolone Acetonide] | inactive: 0.0532 |
| O=C(O)CCCc1ccccc1 [Sodium Phenylbutyrate] | inactive: 0.651 |
| Cc1cnc(NC(=O)C2=C(O)c3ccccc3S(=O)(=O)N2C)s1 [Meloxicam] | inactive: -0.121 |
| CC(C)(Oc1ccc(C(=O)c2ccc(Cl)cc2)cc1)C(=O)O [Fenofibric acid] | inactive: 0.633 |
| Cc1cc([C@@H](C)Nc2ccccc2C(=O)O)c2nc(N3CCOCC3)cc(=O)n2c1 | inactive: 0.141 |
| CCOc1nc2cccc(C(=O)O)c2n1Cc1ccc(-c2ccccc2-c2noc(=O)[nH]2)cc1 [Azilsartan] | active: -7.05 |
| COCCOC(=O)C1=C(C)NC(C)=C(C(=O)OC/C=C/c2ccccc2)C1c1cccc([N+](=O)[O-])c1 (configuration not stated) [Cilnidipine] | inactive: -0.161 |
| O=c1c(-c2ccc(O)cc2)coc2c([C@@H]3O[C@H](CO)[C@@H](O)[C@H](O)[C@H]3O)c(O)ccc12 [Puerarin] | inactive: -0.114 |
| Cc1cc(C)cc(C(=O)NOCCCCCC(=O)NO)c1 | active: -4.71 |
| CNC(=O)c1cc(COc2nnc(Nc3ccc(Cl)cc3)c3ccoc23)ccn1 [Telatinib] | inactive: 0.821 |
| CCCc1nc(C)c2c(=O)nc(-c3cc(S(=O)(=O)N4CCN(CC)CC4)ccc3OCC)[nH]n12 [Vardenafil HCl Trihydrate] | inactive: 0.0923 |
| O=C(O)/C=C/c1ccc(Cn2ccnc2)cc1 [Ozagrel HCl] | inactive: 0.354 |
| O=C(O)/C=C/c1ccc(Cn2ccnc2)cc1 [Ozagrel] | inactive: 1.1 |
| COc1cc2nccc(Oc3ccc(NC(=O)C4(C(=O)Nc5ccc(F)cc5)CC4)cc3)c2cc1OC | inactive: 1.28 |
| COc1cc2nccc(Oc3ccc(NC(=O)C4(C(=O)Nc5ccc(F)cc5)CC4)cc3)c2cc1OC [Cabozantinib malate (XL184)] | inactive: 1.14 |

| SMILES | nuclei number (z-score) |
| --- | --- |
| CNC(=O)[C@H](Cc1c[nH]c2ccccc12)NC(=O)[C@@H](CC(=O)NO)CC(C)C [Ilomastat (GM6001, Galardin)] | inactive: -1.02 |
| C[C@H]1C[C@H]2[C@@H]3CCC4=CC(=O)C=C[C@]4(C)[C@@]3(F)[C@@H](O)C[C@]2(C)[C@@]1(O)C(=O)CO [Betamethasone] | inactive: 2.51 |
| Oc1ccc(OCc2ccccc2)cc1 [Monobenzone] | inactive: -0.734 |
| CC1=Nc2ccc(Cl)cc2S(=O)(=O)N1 [Diazoxide] | inactive: 1.32 |
| CO[C@@]12[C@H](COC(N)=O)C3=C(C(=O)C(C)=C(N)C3=O)N1C[C@@H]1N[C@@H]12 [Mitomycin C] | active: -5.73 |
| COc1cc(O)c(CC=C(C)C)c(O)c1C(=O)/C=C/c1ccc(O)cc1 [Xanthohumol] | inactive: 1.21 |
| Cc1cc(/N=N/c2ccc(S(=O)(=O)Nc3ccccn3)cc2)c(N)cc1O | inactive: 0.0241 |
| CN(C)CCOc1ccc(/C(=C(/CCCl)c2ccccc2)c2ccccc2)cc1 [Toremifene Citrate] | inactive: -0.936 |
| CC(C)(Cc1ccc2ccccc2c1)NC[C@@H](O)COc1cccc(Cl)c1C#N | inactive: -0.19 |
| O=C(c1cn(Cc2cncn2Cc2ccc(Br)cc2)cc1-c1cccc2ccccc12)N1CCOCC1 | inactive: -1.48 |
| CCN1CCN(C(=O)N[C@@H](C(=O)N[C@@H]2C(=O)N3C(C(=O)O)=C(CSc4nnnn4C)CS[C@H]23)c2ccc(O)cc2)C(=O)C1=O [Cefoperazone] | inactive: -0.383 |
| Cc1ccc(Cl)c(Nc2ccccc2C(=O)O)c1Cl [Meclofenamate Sodium] | inactive: -0.74 |
| O=C(NCCO[N+](=O)[O-])c1cccnc1 [Nicorandil] | inactive: -0.0492 |
| CCCN(CCC)C(=O)C1=Cc2ccc(-c3ccc(C(=O)N4CCCC4)cc3)cc2N=C(N)C1 [Motolimod (VTX-2337)] | inactive: 0.457 |
| CC(C)CC(=O)N[C@H](C(=O)N[C@H](C(=O)N[C@@H](CC(C)C)[C@@H](O)CC(=O)N[C@@H](C)C(=O)N[C@@H](CC(C)C)[C@@H](O)CC(=O)O)C(C)C)C(C)C [Pepstatin A] | inactive: 0.0195 |
| O=c1cc[nH]c(=S)[nH]1 [2-Thiouracil] | inactive: 0.347 |
| C[C@H](O)C(=O)Nc1c(I)c(C(=O)NC(CO)CO)c(I)c(C(=O)NC(CO)CO)c1I [Iopamidol] | inactive: 0.776 |
| COC(=O)N(C)c1c(N)nc(-c2nn(Cc3ccccc3F)c3ncccc23)nc1N [Riociguat (BAY 63-2521)] | inactive: 0.346 |
| Nc1nc(NCCc2ccc(O)cc2)nc2nc(-c3ccco3)nn12 | inactive: 0.217 |
| O=C(/C=C/c1ccc(CN(CCO)CCc2c[nH]c3ccccc23)cc1)NO [LAQ824 (Dacinostat)] | active: -3.72 |
| Cc1nc(-c2cn3c(n2)-c2ccc(-c4cnn(C(C)(C)C(N)=O)c4)cc2OCC3)n(C(C)C)n1 | inactive: -0.295 |
| CC(C)(C)c1ccc(-c2nc3ccccc3[nH]2)cc1 | inactive: -0.0486 |
| COc1ccc(S(=O)(=O)N(C(C)=O)c2ccccc2/C=C/c2cc[n+]([O-])cc2)cc1 | active: -4.74 |

| SMILES | nuclei number (z-score) |
| --- | --- |
| Cc1c(F)cc(C(=O)NC2CC2)cc1-c1ccc(C(=O)NCC(C)(C)C)cn1 | inactive: 2.57 |
| O=C(NOC[C@H](O)CO)c1ccc(F)c(F)c1Nc1ccc(I)cc1F | inactive: 0.224 |
| CC(C)c1cc(-c2ccc(F)c3ccccc23)nc(N)n1 | inactive: -0.0215 |
| Cc1cc(C)c(/C=C2\C(=O)Nc3ccccc32)[nH]1 [Semaxanib (SU5416)] | inactive: 1.88 |
| CC[C@H]1OC(=O)[C@H](C)[C@@H](O[C@H]2C[C@@](C)(OC)[C@@H](O)[C@H](C)O2)[C@H](C)[C@@H](O[C@@H]2O[C@H](C)C[C@H](N(C)C)[C@H]2O)[C@](C)(O)C[C@@H](C)[C@@H]2N[C@@H](COCCOC)O[C@H]([C@H]2C)[C@]1(C)O [Dirithromycin] | inactive: 2.45 |
| O=C1CC2(CCCC2)CC(=O)N1CCCCN1CCN(c2ncccn2)CC1 [Buspirone HCl] | inactive: 1.09 |
| Nc1ncnc2c1c(I)cn2[C@@H]1O[C@H](CO)[C@@H](O)[C@H]1O [5-Iodotubercidin] | inactive: -1.78 |
| Nc1ccc2cc3ccc(N)cc3nc2c1 [Proflavine Hemisulfate] | active: -7.4 |
| C[C@H](CCC(=O)O)[C@H]1CC[C@H]2[C@@H]3CC[C@@H]4C[C@H](O)CC[C@]4(C)[C@H]3C[C@H](O)[C@]12C [Deoxycholic acid] | inactive: -0.874 |
| CC(=O)Nc1ncc([N+](=O)[O-])s1 [Nithiamide] | inactive: 0.281 |
| CCCCCCCCCCCCCCCC(=O)O[C@@H]1[C@@H](O)[C@@H](O)[C@@H]([C@H](NC(=O)[C@@H]2C[C@@H](CCC)CN2C)[C@H](C)Cl)O[C@@H]1SC [Clindamycin palmitate HCl] | inactive: 0.313 |
| CNc1cccc(CCOc2ccc3c(c2)CN(CC(F)(F)F)C(=O)[C@H](CC(=O)O)C3)n1 | inactive: 1.6 |
| CO/N=C(\C(=O)N[C@@H]1C(=O)N2C(C(=O)O)=C(COC(N)=O)CS[C@H]12)c1ccco1 [Cefuroxime sodium] | inactive: -0.383 |
| CN1CCN(CCOc2cc(OC3CCOCC3)c3c(Nc4c(Cl)ccc5c4OCO5)ncnc3c2)CC1 [Saracatinib (AZD0530)] | inactive: 0.696 |
| CCOCC(O)COc1ccc(NC(=O)CC[S+](C)C)cc1 (configuration not stated) [Suplatast Tosylate] | inactive: 1.26 |
| O=C(O)c1ccc(CN2CCC(CN[C@@H]3C[C@H]3c3ccccc3)CC2)cc1 | inactive: 0.24 |
| O=C(/C=C\n1cnc(-c2cc(C(F)(F)F)cc(C(F)(F)F)c2)n1)NNc1ccccn1 [Verdinexor (KPT-335)] | active: -5.65 |
| CC1Cc2ccccc2N1NC(=O)c1ccc(Cl)c(S(N)(=O)=O)c1 (configuration not stated) [Indapamide] | inactive: -0.314 |
| CCC(=O)c1c(O)cc(O)cc1O [Flopropione] | inactive: 0.872 |
| C=CC(=O)Nc1ccc2ncnc(Nc3cccc(Br)c3)c2c1 | inactive: -0.546 |
| O=C1C[C@@H](c2ccc(O)cc2)Oc2cc(O)cc(O)c21 [Naringenin] | inactive: 0.00437 |
